From PubChem BioAssay AID938 (National Center for Advancing Translational Sciences (NCATS), 2007)
Hit rate of the full screen: of about 73,000 compounds, about 1,800 (2.5%) were called active. This list was built around the results that the source calls inconclusive (neither active nor inactive); the mix of calls is not that of the screen. The call rests on the fitted dose curve; in most records, active means well fitted activation curve with a large enough effect; inconclusive means small, poorly fitted or top-dose-only effect; inactive means no such curve, though single readings can be large or run the other way. Potencies of inconclusive entries are left out as doubtful fits.

test: qHTS Assay for Agonists of the Thyroid Stimulating Hormone Receptor: Activators of Intracellular cAMP Concentrations in Parental HEK 293; settings: parental HEK293 CNG cAMP sensor, membrane potential fluorescence; activation: at 57.1 µM (top of the series) unless noted; further: nearly all actives have a fitted effect of over 55% in size; on activation: % of control where 0% means no effect
Procedure, shortened: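 Parental HEK 293 cells stably expressing a cAMP-gated CNG channel were loaded with membrane potential dye containing 100 uM RO 20-1724 for 60 min. Compound added for 30 min; depolarization read as fluorescence intensity at 590 nm.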
Potency means the concentration at half of the fitted maximal effect; tags describe the fitted curve by direction and shape.

Row | Compound | Potency | activation
1 | Cc1noc(C)c1COc1cccc(C(=O)N2CCN(C/C=C/c3ccccc3)CC2)c1 | inconclusive [activator, single point] | –
2 | Fc1ccc(-c2nc3nc4ccccc4nc3n2Cc2ccco2)cc1 | inconclusive [activator, partial curve] | –
3 | CCOc1ccc2nc(NC(=O)CS(=O)(=O)c3ccccc3)sc2c1 | – | inactive: -0.0178%
4 | CN(C)c1ccc(C(c2ccc(N(C)C)cc2)c2ccc([N+](=O)[O-])cc2)cc1 | inconclusive [activator, single point] | –
5 | Cc1csc(=O)n1CCC(=O)O | – | inactive: 11.6%
6 | COC(=O)Cn1c(=NC(=O)CSCC(=O)NC2CCCCC2)sc2cc(OC)ccc21 | inconclusive [activator, partial curve] | –
7 | COc1ccc(C2=NCC(CSc3nnc(-c4ccc5c(c4)OCO5)o3)S2)cc1 (stereo not given) | inconclusive [activator, single point] | –
8 | CC(=O)c1sc(-c2c(C)nc3sccn23)nc1C1CCCC1 | inconclusive [activator, partial curve] | –
9 | O=C(NC(Cc1ccccc1)C(=O)NCc1ccccn1)c1ccco1 (stereo not given) | inconclusive [activator, partial curve] | –
10 | O=C(CSc1nnc(-c2cccs2)n1Cc1ccco1)Nc1ccc2c(c1)OCO2 | inconclusive [activator, single point] | –
11 | CCOC(=O)CCC(=O)OCC(=O)NC(C)C1CC2CCC1C2 (stereo not given) | – | inactive: 5.54%
12 | Cc1cc(O)c2c(-c3ccccc3)cc(=O)oc2c1 | inconclusive [activator, single point] | –
13 | Fc1ccccc1COc1ccc(/C=N/n2cnnc2)cc1 | inconclusive [activator, single point] | –
14 | O=C(CSc1nc2c(c(=O)n1-c1ccc(Cl)cc1)SCC2)NCc1ccco1 | inconclusive [activator, partial curve] | –
15 | COc1cccc(CNC(=O)C2CCN(c3cnccn3)CC2)c1 | inconclusive [activator, partial curve] | –
16 | N#Cc1ccccc1OCC(=O)Nc1c(C(=O)C2CC2)oc2ccccc12 | inconclusive [activator, partial curve] | –
17 | Cn1cccc1C(=O)N1CCC[C@@]2(CCN(c3ccncc3)C2)C1 | active: 5.01 µM | –
18 | Cc1cc(C)n(-c2nc3ccccc3nc2N2CCCCCC2)n1 | active: 20 µM | –
19 | NCCCCCc1nnc(SCC(=O)Nc2cccc(Cl)c2)o1 | – | inactive: 3.58%
20 | CCNc1cc2n(c(=O)n1)CCc1cc(OC)c(OC)cc1-2 | – | inactive: -1.23%
21 | COc1ccc(-c2ccc(-c3nnn(CC(=O)N4CCOCC4)n3)cc2)cc1 | – | inactive: 1.92%
22 | O=C(c1ccncc1)N1CCC2(CCCN(C(c3ccccc3)c3ccccc3)C2)CC1 | active: 10 µM | –
23 | O=C(NCc1ccc2c(c1)OCO2)c1cccc(F)c1 | inconclusive [activator, single point] | –

Row | Compound | Potency | activation
24 | COc1ccc(NC(=O)C2CCCCN2S(=O)(=O)c2ccc(F)cc2)c(OC)c1 (stereo not given) | inconclusive [activator, partial curve] | –
25 | Cc1ccc(C)c2[nH]c(=O)c(CN(Cc3ccco3)C(=O)Nc3ccccc3)cc12 | active: 20 µM | –
26 | COc1ccc(-c2nnc(SCC(=O)N3CCc4ccccc4C3)o2)cc1 | active: 25.1 µM | –
27 | Cc1sc(NC(=O)CSc2nnnn2C2CCCC2)c(C#N)c1C | inconclusive [activator, single point] | –
28 | C=C(CC(=O)O)C(=O)O (tested in a mixture with another compound) | – | inactive: -4.61% [at 11.4 µM]
29 | CCOC(=O)c1cc2c(ccn2-c2ccc(F)cc2)n1CC(=O)N1CCN(C(=O)c2ccco2)CC1 | inconclusive [activator, full curve, poor fit] | –
30 | N#Cc1c(/N=C/c2ccco2)sc2c1CCC2 | – | inactive: -7.05%
31 | CCNC(=O)CSc1nc2ccccc2c(=O)n1OC | inconclusive [activator, single point] | –
32 | CCOc1ccc(-c2nnc(NC(=O)CCCOc3cccc(C)c3)o2)cc1 | inconclusive [activator, partial curve] | –
33 | O=C1CC(N2CCN(C3CCc4ccccc4C3)CC2)C(=O)N1c1ccccc1 (stereo not given) | active: 25.1 µM | –
34 | COc1ccc(C2SCCN2S(=O)(=O)c2ccc(F)cc2)cc1OC (stereo not given) | – | inactive: 17.5%
35 | COC(=O)c1ccc(COc2ccc3c4c(c(=O)oc3c2)CCC4)o1 | inconclusive [activator, partial curve] | –
36 | CC1(CC(=O)O)O[C@H]2CCCCC[C@H]2O1 (stereo not given in full) (tested in a mixture with another compound) | – | inactive: 12.9% [at 11.4 µM]
37 | C/C=C/Cn1c(SCc2ccc(C)cc2)nc2c1c(=O)[nH]c(=O)n2C | inconclusive [activator, single point] | –
38 | CCCCCCN(C(=O)CCCCCN1C(=O)NC(c2ccc(-c3ccccc3)cc2)C(C(=O)OCc2ccccc2)=C1C)C(C(=O)NCCCC)c1ccc(OCC(=O)O)c(C(=O)O)c1 (stereo not given) | – | inactive: 28.3%
39 | COc1ccc(COC(=O)N/N=C2/C[C@@H](O)[C@@H](O)[C@@H]3[C@@H]4C(=O)N(c5cccc(Oc6ccccc6)c5)C(=O)[C@H]4CC[C@H]23)cc1 | – | inactive: 15.8% [at 11.4 µM]
40 | CCCCC(=O)Nc1cccc(NC(=O)c2ccc3c(c2)OCO3)c1 | – | inactive: -2.19%
41 | CCOC(=O)N1CCN(C(=O)CNS(=O)(=O)c2cccs2)CC1 | inconclusive [activator, partial curve] | –
42 | Cc1cccc(OCc2nnc(SCC(=O)Nc3sc(C)c(C)c3C#N)n2C)c1 | – | inactive: -1.23%
43 | CCC(=O)c1ccc(OCC(O)CN2C(=O)NC(C)(C)C2=O)cc1 (stereo not given) | inconclusive [activator, single point] | –
44 | Fc1ccccc1N1CCN(C(c2cccs2)c2nnnn2CCc2ccccc2)CC1 (stereo not given) | inconclusive [activator, partial curve] | –
45 | COc1ccccc1N1CCN(C(=O)CN(c2ccccc2OC)S(=O)(=O)c2ccccc2)CC1 | inconclusive [activator, full curve] | –
